Assay results from the supplement of paper PMC4967469.

What was measured:
Assay in all cases: Viability of human cancer cell lines after 72 h of drug (GDSC screen)
GW-2580 = compound: COc1ccc(COc2ccc(Cc3cnc(N)nc3N)cc2OC)cc1 [GW-2580]; settings: top dose 20 µM; top dose inferred
Method: (§1)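 Human cancer cell lines in 384-well plates, medium with 10% serum, drug for 72 h over a 256-fold dose range (nine 2-fold or five 4-fold steps up to the top dose). Adherent lines were fixed and stained with the nucleic acid dye Syto60, suspension lines read with resazurin; signal relative to control wells, capped at 0 and 100%. One two-parameter sigmoid per drug and line, fitted in a mixed model over all curves with the slope shared within a line.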

Bryostatin 1 = compound: CCC/C=C/C=C/C(=O)O[C@H]1/C(=C/C(=O)OC)C[C@H]2C[C@H]([C@@H](C)O)OC(=O)C[C@H](O)C[C@@H]3C[C@H](OC(C)=O)C(C)(C)[C@](O)(C[C@@H]4C/C(=C/C(=O)OC)C[C@H](/C=C/C(C)(C)[C@]1(O)O2)O4)O3 [Bryostatin 1]; settings: top dose 0.008 µM; top dose inferred
Method: as §1

SGC0946 = compound: CC(C)N(CCCNC(=O)Nc1ccc(C(C)(C)C)cc1)C[C@H]1O[C@@H](n2cc(Br)c3c(N)ncnc32)[C@H](O)[C@@H]1O [SGC0946]; settings: top dose 0.5 µM; top dose inferred
Method: as §1

Lenalidomide = compound: Nc1cccc2c1CN(C1CCC(=O)NC1=O)C2=O [Lenalidomide]; settings: top dose 5 µM; top dose inferred
Method: as §1

Cell Line	AUC (GW-2580)	IC50 (GW-2580) [nM]	AUC (Bryostatin 1)	IC50 (Bryostatin 1) [nM]	AUC (SGC0946)	IC50 (SGC0946) [nM]	AUC (Lenalidomide)	IC50 (Lenalidomide) [nM]
HDQ-P1 (breast, adherent)	0.983	> 20000	0.948	> 8	0.979	> 500	0.984	> 5000
HEC-1 (endometrium, adherent)	0.982	> 20000	0.989	> 8	0.978	> 500	0.989	> 5000
HGC-27 (stomach, adherent)	0.983	> 20000	0.971	> 8	0.989	> 500	0.971	> 5000
HH (T-cell leukaemia, suspension)	0.963	> 20000	0.976	> 8	0.968	> 500	0.969	> 5000
HMV-II (melanoma, adherent)	0.979	> 20000	0.685	1.86	0.978	> 500	0.982	> 5000
HN (head and neck, adherent)	0.989	> 20000	0.96	> 8	0.956	> 500	0.978	> 5000
HO-1-u-1 (head and neck, adherent)	0.987	> 20000	0.985	> 8	0.986	> 500	0.981	> 5000
HOP-62 (lung adenocarcinoma, adherent)	0.984	> 20000	0.941	> 8	0.985	> 500	0.985	> 5000
HOP-92 (large cell lung carcinoma, adherent)	0.981	> 20000	0.972	> 8	0.959	> 500	0.975	> 5000
HOS (osteosarcoma, adherent)	0.992	> 20000	0.95	> 8	0.984	> 500	0.977	> 5000
HSC-2 (head and neck, adherent)	0.984	> 20000	0.987	> 8	0.988	> 500	0.989	> 5000
HSC-4 (head and neck, adherent)	0.979	> 20000	0.962	> 8	0.969	> 500	0.846	> 5000
HSC-39 (stomach, suspension)	0.99	> 20000	0.991	> 8	0.991	> 500	0.991	> 5000
HT-3 (cervix, adherent)	0.987	> 20000	0.987	> 8	0.986	> 500	0.987	> 5000
HT-29 (large intestine, adherent)	0.983	> 20000	0.984	> 8	0.986	> 500	0.988	> 5000
HT-115 (large intestine, adherent)	0.982	> 20000	0.991	> 8	0.991	> 500	0.991	> 5000
HT-1080 (fibrosarcoma, adherent)	0.985	> 20000	0.959	> 8	0.988	> 500	0.989	> 5000
HT-1197 (bladder, adherent)	0.97	> 20000	0.908	> 8	0.974	> 500	0.981	> 5000
HT-1376 (bladder, adherent)	0.984	> 20000	0.973	> 8	0.98	> 500	0.957	> 5000
Hep 3B2_1-7 (liver, adherent)	0.976	> 20000	0.966	> 8	0.983	> 500	0.973	> 5000
Hs633T (fibrosarcoma, adherent)	0.992	> 20000	0.992	> 8	0.991	> 500	0.992	> 5000
Hs683 (glioma, adherent)	0.988	> 20000	0.976	> 8	0.987	> 500	0.988	> 5000
Hs766T (pancreas, adherent)	0.984	> 20000	0.967	> 8	0.978	> 500	0.947	> 5000
Hs939-T (melanoma, adherent)	0.986	> 20000	0.984	> 8	0.984	> 500	0.985	> 5000
Hs-578-T (breast, adherent)	0.987	> 20000	0.987	> 8	0.985	> 500	0.987	> 5000
HuCCT1 (biliary tract, adherent)	0.963	> 20000	0.959	> 8	0.982	> 500	0.983	> 5000
HuH-7 (liver, adherent)	0.983	> 20000	0.887	> 8	0.983	> 500	0.986	> 5000
HuO9 (osteosarcoma, adherent)	0.973	> 20000	0.979	> 8	0.979	> 500	0.984	> 5000
HuO-3N1 (osteosarcoma, adherent)	0.982	> 20000	0.963	> 8	0.98	> 500	0.957	> 5000
HuP-T3 (pancreas, adherent)	0.983	> 20000	0.895	> 8	0.98	> 500	0.964	> 5000

By IC50 is meant the dose at which the fit gives 50% viability; a fit beyond the top or the lowest dose is shown as a bound at that dose. AUC is the area under the same curve over the 256-fold range up to the top dose, as a fraction: 1 means no effect, lower means more sensitive. Any top dose called inferred comes from the curve model; the source does not state it.
